Results on 14 molecules are retold here after publication PMC12136788.

The labels stand for the following.
T1: UNK ZnF1-3 (human, UniProt Q9C0B0 31-174)
T1 sequence: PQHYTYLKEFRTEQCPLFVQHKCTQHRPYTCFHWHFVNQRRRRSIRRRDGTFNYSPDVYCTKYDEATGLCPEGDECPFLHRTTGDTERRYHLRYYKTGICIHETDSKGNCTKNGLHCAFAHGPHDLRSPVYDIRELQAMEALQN

B1: chr11:107358869:107358870:+_ENSMUSG00000020720_ENSMUST00000021063|mus_hu|motif|central (ssRNA)
RNA: GGGAGUUCUACAGUCCGACGAUCCUCUGGAAGUUGAUAAUUCCUGCUAAUCUGUCUACUUUAGCAAAGAUGGUCUUGUUAACGGCGGGAUUUGAGAGAAAGGCUUCGGACUCAUCAACAGAUAGAUCCAGAAGCUGUGCCAUCCAACAGAGGAUUGAGCAUCA
B2: chr7:141441981:141441982:+_ENSG00000106028_ENST00000265304|hu_mus|hu_hu_hu_mus_False|18_38 (ssRNA)
RNA: GGGAGUUCUACAGUCCGACGAUCCUCAUGUCUUACAAACUGACGAAAUACCUGUAACACAGGUCUUCGAAACAUGGCUUCUGUUUUUCUUACAACCAGUCUAAUCUGCUUUUCCUACCUGACGAUCAGAAAAGAGAAAAAUGACAACAGAGGAUUGAGCAUCA
B3: chr2:181286759:181286760:+_ENSMUSG00000000826_ENSMUST00000072334|mus_mus|motif|central (ssRNA)
RNA: GGGAGUUCUACAGUCCGACGAUCGUGUUAACUGAACAUUAGAAGGGUAGGAAAGGUCAUAAACAUUGCACAGAAUCAUCGGAAGUAAUCUUAAAAUACAGUCAAAAGGAAGACAAGGAAAGACAUCACUGGGCACAAACAGAACAACAGAGGAUUGAGCAUCA
B4: chr11:77336104:77336105:-_ENSG00000074201_ENST00000525064|hu_mus|hu_hu_hu_mus_False|48_68 (ssRNA)
RNA: GGGAGUUCUACAGUCCGACGAUCCUCACACAUUGCUGUGAACAUCGCCUCCAAUGCUGACUUAUCACUAGGCACAAAUCGAAAUUCAGUAAUAGGUUCAACAUCAUCAUUGUCUUCCUCAUCUUCAUCAGAGAGAGGUUCUUUCAACAGAGGAUUGAGCAUCA
B5: chr5:122941739:122941740:-_ENSMUSG00000029467_ENSMUST00000031423|mus_hu|FALSE|FALSE (ssRNA)
RNA: GGGAGUUCUACAGUCCGACGAUCUCUUUCCUGCCAUACACCCACAAUUGCAUUGGCUACUAAUAUGAGUAAAAUUACAAAAGGUUCUACAAAGGCUGUAAUUGUUUCUUCACCUUCUUCAAACCAAGCCAAAACAAAAGAUAUCAACAGAGGAUUGAGCAUCA
B6: chr10:120833061:120833062:-_ENSG00000107581_ENST00000369144|perfect_dup|motif|central (ssRNA)
RNA: GGGAGUUCUACAGUCCGACGAUCCUGAGAUUCUUCUUUAGCAGCUUCAGUUUUUUCCUCUGCCAUUUUCAAAUAUGCCCGGACAACAUCCUCCAGAGAUUUUAUGUUCACCUGUUGACAAAUGUUCUUAUACUGGUAUAACCCCAACAGAGGAUUGAGCAUCA
B7: chr12:121861850:121861851:+_ENSG00000170633_ENST00000361234|hu_mus|FALSE|FALSE (ssRNA)
RNA: GGGAGUUCUACAGUCCGACGAUCUAGCAACAAUGUUGAAACUUACAUUCAUUAAAUAUUAGCAUUUAAAAUAUACAUGGCUAAUCGAGUGAACAUUCAGAGCAGUUACGGCUCAGGAUAGUCCACACUACCCAGUCAUGACAGCAACAGAGGAUUGAGCAUCA
B8: 8415798_8415918_2908_CDS_ENSG00000133026_ENST00000269243|human|control|control (ssRNA)
RNA: GGGAGUUCUACAGUCCGACGAUCAUUUUGGAGGAUUUGGUUUCUUUCUUCUUCUUCUUCAACCCUAGACUCCAAGUCAUGUAGAAUCUCUUCUAAUUCCUGCUUUUUAGCAGCAAGUCUUGCCCUCAUCUCUUCUGCUUCAGCCAACAGAGGAUUGAGCAUCA
B9: chr8:122087627:122087628:-_ENSMUSG00000034189_ENSMUST00000036049|mus_hu|FALSE|FALSE (ssRNA)
RNA: GGGAGUUCUACAGUCCGACGAUCUAGUUACAAAAUAAUACUUUUCAGUAGUCUUUCUUGAUGCACAUUUAAAAACCAGCACAACUCCUCUAGUGAAAUGGUCAAUUUCCCUUAAAAAACAACAUCUGAAAUUAUAAGACCUGACAACAGAGGAUUGAGCAUCA
B10: 63459802_63460011_11422_CDS_ENSMUSG00000030451_ENSMUST00000076226|mouse|control|control (ssRNA)
RNA: GGGAGUUCUACAGUCCGACGAUCGCUGGCAGCUAGGGCGCUCAGCUGAGCACACGCAGCCAGAGAGGCAGCAAGGCGAGGGACGAUGCUUCUGUUGGAGGUGAGAUUGAGUCGGAAGUCCAAGAGACAGGUCACCAGGUCCAUCAACAGAGGAUUGAGCAUCA
B11: chr1:53517203:53517204:+_ENSG00000116171_ENST00000408941|hu_mus|motif|central (ssRNA)
RNA: GGGAGUUCUACAGUCCGACGAUCUCAGGAAGAGCUGUUUUAAUUUUCUUUUUAAAUCUUCCAAAAGCAUAUUUUUAUCCCAAACCGGAAUUAUAACAAAUAGCAUUAGAAUUAGAAAAACUUGGAAGAAAGAUAAAUGCAGACCAACAGAGGAUUGAGCAUCA
B12: chr9:95013113:95013114:-_ENSG00000196305_ENST00000443024|hu_hu|hu_hu_hu_mus_False|98_98 (ssRNA)
RNA: GGGAGUUCUACAGUCCGACGAUCCUCAGUCAGAAAGGGUGUGUAGGGGGCCAUCAGUCUGCACAGAGAAAGCAGGACACUGAACAGUGUCUCCAGAGCCAUGACACAGUCUUCCACCCCACUCUCACCCUUUAACCUCCUCCUCAACAGAGGAUUGAGCAUCA
B13: chr14:31337589:31337590:+_ENSMUSG00000021962_ENSMUST00000022535|mus_mus|FALSE|FALSE (ssRNA)
RNA: GGGAGUUCUACAGUCCGACGAUCAAUGACCUGUAUCAUAGAAACGAAGACACUUUUCAUUCAAAGAAUAUCUCAAAAUUACUAUUGCUGAAAUAAUCAAAUUCUACAUUAAAAUAUUACCAAACACCAUUACAUGCCAUAAAACAACAGAGGAUUGAGCAUCA
B14: 25965724_25965844_3665_3pUTR_ENSG00000143970_ENST00000336112|human|control|control (ssRNA)
RNA: GGGAGUUCUACAGUCCGACGAUCUUUUCAAGGCUUCAGUGGGGCUGCUUAGACAAAAACGAUCUUCAGGGUUUACAGAAUGGGUCCUCCUAAAGCUCUCUGAGCCCCGGCCGUAGGUAGAAAUAUUCAGUAAGUAGUGCCCUGCAACAGAGGAUUGAGCAUCA

This is one part of the list.

The assay deals with T1, UNK ZnF1-3. The assay can be described thus: nsRBNS (natural sequence RNA bind-n-seq); RBNS binding buffer (assumed for nsRBNS): 25 mM Tris pH 7.5, 150 mM KCl, 3 mM MgCl2, 0.01% Triton X-100, 500 ug/ml BSA, 20 U/ml SUPERase-In, 4 C; UNK is unkempt and MSI1 is Musashi-1; names of the RNAs are library labels; protein concentration not given here; high values mean tight binding.
Regarding B1, the binding signal came to 1.49 enrichment R. Regarding B2, the binding signal was 0.852 enrichment R. With B3, the binding signal worked out at 2.34 enrichment R. In turn, B4 had a binding signal of 0.835 enrichment R. Next, B5: 1.23 enrichment R; B6: 0.789 enrichment R; B7: 0.586 enrichment R. The molecule B8 showed a binding signal of 0.424 enrichment R. Turning to B9, the binding signal worked out at 1.2 enrichment R. Consider B10, for which the binding signal was found to be 1.31 enrichment R. In turn, B11 yielded a binding signal of 2.22 enrichment R.

B12 came in with a binding signal of 0.954 enrichment R. Molecule B13 registered a binding signal of 0.872 enrichment R.

For the molecule B14, the binding signal was determined as 1.44 enrichment R.
